# Experimental data as given in ChEMBL document CHEMBL4888484, “Replenishing the malaria drug discovery pipeline: Screening and hit evaluation of the MMV Hit Generation Library 1 (HGL1) against asexual blood stage Plasmodium falciparum ,using a nano luciferase reporter read-out” (2022).
# In all, about 4,800 compounds went through this assay and about 420 (8.8%) showed an effect of 50% or more. Some of the results follow.
# Tested on: Plasmodium falciparum
# Assay: Confirmatory screen in NF54 nanoGlo assay, in single point, at 2uM, 72h
# Assay type: functional, Erythrocyte
# Settings: timepoint 72 hour
row,SMILES,% Inhibition
1,CC(C)Cc1nsc(NCc2ccc(O)cc2O)n1,-1%
2,COc1ccc(C(C)=O)c(O[C@@H](C)C(=O)NCC(F)(F)F)c1,-13%
3,CC(C)CN1C(=O)CC[C@@H](C(=O)NCCCN2CCOCC2)[C@@H]1c1cccnc1,-9%
4,CC(C)(C)c1cc2c(NCC3=CCOCC3)nccn2n1,-4%
5,c1ccc2c[n+](Cc3ccc4ccccc4n3)ccc2c1,50%
6,O=S(=O)(Nc1ccc(O)c2cccnc12)N1CCCC1,15%
7,C/C(=N\S(=O)(=O)c1ccc(Cl)cc1)Nc1cc(C(C)C)c(O)cc1C,-12%
8,O=C(O)c1ccc(N(C(=O)c2ccc3c(c2)OCO3)C(=O)c2ccc3c(c2)OCO3)cc1O,3%
9,Cc1nn(-c2ccccc2)c2c1[C@@H](c1ccc(C(F)(F)F)cc1)N(c1ccccc1)C(=O)N2,2%
10,Cc1c(NC(=O)C(F)(F)[C@@]2(F)OC(F)(F)C(F)(F)C2(F)F)c(=O)n(-c2ccccc2)n1C,-13%
11,COc1cccc(CNCCCN2CCOCC2)c1OCc1ccc(Cl)cc1Cl,-1%
12,CN(C(=O)CN(CCO)c1ccc(Br)cc1)C1CC1,-2%
13,O=C1NC(=O)c2ccc3c4c(ccc1c24)C(=O)N(c1ccccc1)C3=O,49%
14,COc1cccc(N2C(=O)N[C@H](C)C2=O)c1,8%
15,CCCCNC(=O)NCc1nc2ccccn2c1Cl,-13%
16,CCCOc1ccc2c(c1)OCC(C(=O)N1CCC[C@H](C(N)=O)C1)=C2,-8%
17,O=C(CN1CCC(c2ccc(F)c(F)c2)CC1)NCc1cccnc1,-11%
18,N#Cc1c(NC(=O)Nc2cn3ccccc3c2C#N)cn2ccccc12,-6%
19,Cc1nc2nnnn2c(C)c1C/C=C/c1ccccc1,0%
20,C[C@H]1[C@@H]2[C@@H](O)C([C@H](C)C(=O)NC3CCCCC3)CC[C@@]2(C)CC[C@@H]1NC(=O)CC(C)(C)C (stereo partly specified),35%
21,NC(=O)CN1CCC2(CC1)NC(c1ccc(OC(F)(F)F)cc1)=NO2,0%
22,COCC(=O)N(C1CCOCC1)[C@H]1CCCN(Cc2c[nH]c3ccc(OC)cc23)C1,-9%
23,C[C@@H](C1CC1)N(C1CC1)S(=O)(=O)c1ccc(F)cc1F,-2%
24,CC1Cc2cc(-c3ccc(CNC(=O)C(C)(O)C4CC4)cc3)ccc2O1 (stereo unspecified),4%
25,CC[C@@H](CO)NCc1ccc(OC)cc1OC,-2%
26,N=C1CCCN1c1c(Cl)cccc1Cl,3%

row,SMILES,% Inhibition
1,Cc1ccc(CC(=O)N2C[C@H](c3ccccc3)C(c3ccc(Cl)cc3)=N2)cc1,6%
2,O=C(NCc1ccco1)c1ccc2c(c1)OCO2,-9%
3,O=C(NS(=O)(=O)C1CCOCC1)c1csc(-c2ccco2)n1,-12%
4,COc1ccc(OC)c(CNC(=O)c2ccc(Nc3ncc(-c4cccc(F)c4)cn3)cc2)c1,-6%
5,Nc1nonc1C(=O)N1CCN(C(=O)Nc2cccc(F)c2)CC1,-6%
6,Cc1nn(-c2ncc(C(F)(F)F)cc2Cl)c(=O)n1-c1cccc(Cl)c1,1%
7,CCc1n[nH]c(=O)c(C(=O)Nc2cnc3[nH]nc(C)c3c2)c1CC,-1%
8,Cc1cccc(N2CCN(C(=O)CN3CCN(Cc4ccc(Cl)cc4)C3=O)C[C@@H]2C)c1,-4%
9,Cc1ccsc1CN(C(=O)c1cccc[n+]1[O-])C(C)C,-1%
10,O=C(c1ccc(COc2ccc(Cl)cc2Cl)cc1)n1cc(Br)cn1,-4%
11,O=C(CN1C(=O)N[C@H](c2ccc(F)cc2)C1=O)Nc1ccc2c(c1)OCCO2,-12%
12,Cc1nsc2ncn(C[C@H](O)COCc3ccco3)c(=O)c12,3%
13,COc1cc(F)c([C@H](C)NC(=O)N(C)Cc2ccco2)cc1OC,49%
14,Clc1ccc(Cl)c(-c2ccc(CNCCOc3ccccn3)o2)c1,4%
15,CCC(=O)N1CCN(c2nc3c(s2)C[C@@H](C(=O)Nc2cccc(Cl)c2)CC3)CC1,-17%
16,Cc1ccn(-c2ccc(C(=O)NC3CCCC3)cn2)n1,-13%
17,CC(C)(C)n1ncc2c1NC(=O)C[C@@H]2c1c(F)cccc1Cl,-18%
18,COCC[C@](C)(O)CNC(=O)Nc1ccccc1,1%
19,CCCc1nc(CNc2cccc3c2N(C(C)=O)CC3)no1,-11%
20,CCOc1cc(Cl)c(Cl)c(C#N)c1OC(C)=O,-4%
21,COC(=O)C1=C(C(=O)OC)SC(=C2C(=S)C(C)(C)N(C(=O)COc3ccc4ccccc4c3)c3ccccc32)S1,9%
22,N#CC1(c2ccccc2)c2ccccc2C(=O)c2ccccc21,-8%
23,COc1ccc(CCNC(=O)c2cnn3c4c(cnc23)C[C@@H](C)CC4)cc1OC,37%
24,O=C(Nc1ccccc1)c1ccc(Nc2ncc(-c3cccc(F)c3)cn2)cc1,-3%
25,COc1cc(-c2nc3ccccc3s2)ccc1OCc1cccc2ccccc12,-7%
26,CCN1C(=O)C[C@H](C(=O)Nc2cnc3ccccc3c2)[C@H]1c1nccn1CC,2%

row,SMILES,% Inhibition
1,CC(C)=C(F)C(=O)N1CC[C@H](CO)C[C@@H]1C,-3%
2,[O-]/[N+](=C\c1ccncc1)Cc1ccccc1,-15%
3,C=CCOc1ccc(CN(C)S(=O)(=O)CC#N)cc1,-1%
4,Cc1c(Cl)cccc1C(=O)N1CCC[C@H](Cn2cncn2)C1,-2%
5,Cc1cccn2cc(CN(C)[C@H](c3ccccn3)C3CC3)nc12,7%
6,CN1CCN(c2nc(O)c3c(n2)NC(=O)C[C@H]3c2c(F)cccc2F)CC1,-3%
7,Nc1c(-c2ccc(F)cc2)cnc2cc(-c3ccc(Cl)c(Cl)c3)nn12,3%
8,CC(=O)N1CCC2(CC1)NN=C1C=CC(c3nc(C(C)(C)C)no3)=CN12,-5%
9,CC[C@H]1Cn2c(C(=O)NCc3ccc(C)o3)cc3cccc(c32)O1,-11%
10,CCN(CC(=O)Nc1ccc2c(c1)OCCO2)C(=O)CCc1c(C)noc1Cl,14%
11,O=S(=O)(c1ccccc1Br)N1CC[C@H]1c1ccccc1,-6%
12,Fc1ccc(Nc2nc(OC(C(F)(F)F)C(F)(F)F)nc(N3CCCCCC3)n2)cc1,-9%
13,CCN(C(C)=O)c1nc(CN2CCc3cc(C)cc(C)c3C2)cs1,0%
14,Cc1nnc(-c2cnn(C)c2N)n1C[C@H]1CCCO1,-2%
15,Cc1ccc(Cl)c2ccc(NC(=O)CCNC(N)=O)nc12,0%
16,COC(=O)c1ccccc1NC(=O)NCCn1nnc2cc(S(=O)(=O)N(C)C)ccc21,55%
17,COCC(=O)N[C@H]1CO[C@H]2[C@@H]1OC[C@@H]2Nc1nccc(-c2cccc(C#N)c2)n1,4%
18,CC(=O)N1CCCN(C(=O)c2ccccc2)CCNC(=O)[C@@H]2CCC[C@@H]21,0%
19,COc1nc(-c2cccc(C(=O)NCC3CCOCC3)c2)ncc1F,66%
20,C=CCN(CC=C)C(=O)COc1cc(C)c(C)nn1,2%
21,CCn1c(=O)c(N2CCN(C(=O)Nc3ccc(F)cc3F)CC2)nc2ccccc21,2%
22,O=C(CN1CCC[C@H](O)C1)N(C1CCCCC1)C1CCCCC1,7%
23,Cc1cc(C(=O)N[C@H]2CCS(=O)(=O)C2)nc(N(C)C)n1,-6%
24,CC[C@H](Nc1ccc(Cl)c(NC(C)=O)c1)C(=O)OC,-10%
25,CN(CC(F)(F)F)S(=O)(=O)c1ccc(C(=O)O)cc1,-5%
26,COCCOc1ccc2c(n1)CCN(C(=O)c1ccc(OC)cc1)C2,-14%

row,SMILES,% Inhibition
1,COc1ccc(-n2nnnc2C2(N3CCOCC3)CCCC2)cc1OC,-6%
2,CN1CCC2C(CCN2C(=O)Nc2ccc(Cl)c(C(F)(F)F)c2)C1 (stereo unspecified),2%
3,Cc1cc(C(=O)NCCCN2CCCC2=O)nn1C(F)F,-13%
4,Oc1nc(-c2cccc(C(F)(F)F)c2)sc1-c1ccccc1,0%
5,COCCCn1c(NS(=O)(=O)c2ccccc2)c(S(=O)(=O)c2ccc(C)cc2)c2nc3ccccc3nc21,61%
6,CC(C)(C)OC(=O)N1CCC2(CC1)NN=C1C=C(N3CCN(c4ccccc4F)CC3)N=CN12,-8%
7,CC(C)(C)OC(=O)NCc1ccccc1O,1%
8,COc1cccc2c(=O)c3c([nH]c12)CCN(CC(=O)NCc1ccccc1Cl)C3,42%
9,CCn1cc2c(n1)c(=O)n(Cc1ccc(C)cc1)c(=O)n2CC(=O)Nc1ccc(C)cc1C,-10%
10,CCOC(=O)c1cc(NC(=O)NCCS(C)(=O)=O)c(F)cc1C,-9%
11,O=S(=O)(c1cccnc1)N(CC1CCCCC1)c1cnccn1,-2%
12,COc1ccc(S(=O)(=O)N(C2CCCCC2)C2CCCCC2)cc1,-11%
13,COc1cc(C)c2[nH]c3c(c(=O)c2c1)CN(CC(=O)Nc1ccc2c(c1)OCCO2)CC3,16%
14,Cc1occc1C(=O)NC1(c2ccccc2)CCOCC1,-5%
15,Cc1cc(C)c(CNC(=O)c2c[nH]c3ncccc23)c(=O)[nH]1,-2%
16,CC1CCCCC1NC(=O)CN1CCN(Cc2cccc(Cl)c2)C1=O (stereo unspecified),-11%
17,CC(C)c1cccc(Nc2nc3ccncc3n(C(C)C)c2=O)c1,95%
18,CC1CCN(C[C@H]2CCCCCN2C(=O)NCCc2ccccc2)CC1,34%
19,O=C1C2CC=CCC2C(=O)N1CNc1ccc(Cl)cc1 (stereo unspecified),-12%
20,CCC(C#N)(CC)c1nc(-c2cc(N)nc3ccccc23)no1,-1%
21,O=C(c1ccc(Cl)cc1)c1c[nH]c2c(F)cc(F)cc2c1=O,5%
22,CC(C)COCn1cc(Br)c(=O)[nH]c1=O,-5%
23,FC(F)(F)c1cc(Oc2cc(Oc3ccc(Cl)c(C(F)(F)F)c3)nc(Oc3ccc(Cl)c(C(F)(F)F)c3)n2)ccc1Cl,0%
